# Measurements reported in PubChem BioAssay AID588453 (National Center for Advancing Translational Sciences (NCATS), 2011).
# Among all 390,000 compounds or so, about 4,000 (1%) were called active. Inconclusive results, whose numbers are uncertain, are shown with a selection of clear calls. Calls follow the shape of the dose curve; as a rule, active = well fitted inhibition curve with a large enough effect; inconclusive = small, poorly fitted or top-dose-only effect; inactive = no such curve, though single readings can be large or run the other way. A potency beside an inconclusive call is a rough fit, not a confirmed value.
# Target: Thioredoxin reductase 1, cytoplasmic (Rattus norvegicus) (UniProt O89049)
# UniProt O89049, sequence (O89049 whole entry, looked up): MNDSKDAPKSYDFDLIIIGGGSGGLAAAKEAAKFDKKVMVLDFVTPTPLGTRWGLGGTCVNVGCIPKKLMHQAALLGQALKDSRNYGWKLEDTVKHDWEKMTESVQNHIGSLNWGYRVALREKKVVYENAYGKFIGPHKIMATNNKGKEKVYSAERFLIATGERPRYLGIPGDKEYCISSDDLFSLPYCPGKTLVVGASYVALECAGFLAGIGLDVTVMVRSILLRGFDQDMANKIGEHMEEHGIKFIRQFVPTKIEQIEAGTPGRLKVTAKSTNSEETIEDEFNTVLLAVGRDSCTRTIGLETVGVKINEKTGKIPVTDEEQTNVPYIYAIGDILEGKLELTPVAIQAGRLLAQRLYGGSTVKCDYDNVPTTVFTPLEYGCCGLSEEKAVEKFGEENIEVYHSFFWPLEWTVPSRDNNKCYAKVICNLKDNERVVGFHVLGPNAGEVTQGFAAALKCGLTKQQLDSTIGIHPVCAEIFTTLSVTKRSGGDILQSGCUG
# Assay: qHTS Assay for Inhibitors of Mammalian Selenoprotein Thioredoxin Reductase 1 (TrxR1): qHTS; also: nearly all actives have a fitted effect of over 65% in size
# Settings: recombinant rTrxR1, NADPH fluorescence consumption, selenite substrate; series mostly up to 114 µM
# How it was run: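 Rat TrxR1 (90 nM in the dispensed reagent) was pre-reduced with 400 uM NADPH for 5 min at room temperature, then incubated with compound for 15 min. After 400 uM selenite was added, NADPH fluorescence (Ex 340/Em 450 nm) was followed for 8 min.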
# % is scaled to controls: 0 for no effect and ±100 for the full control effect; potency is read from the fitted curve at half-maximal effect; tags tell the direction and shape of the fitted curve.
Compound,Potency,"activity change, negative = inhibition"
Cc1onc(-c2ccccc2Cl)c1C(=O)NCc1ccccc1F,inactive,
CCOc1cc(NC(=S)NCC2CCCO2)c(OCC)cc1NC(=O)c1ccccc1C (centres undefined),"inconclusive: 2.24 µM [inhibitor, full curve]",
CC(=O)OCC(=O)Nc1ccc([N+](=O)[O-])cc1Cl,inactive,
CCOC(=O)Cc1csc(NC(=O)NC2(C(F)(F)F)Oc3cc(Cl)c(Cl)cc3O2)n1,"inconclusive: 12.6 µM [inhibitor, partial curve]",
CC1C/C(=C/c2cccn2C)C(=O)/C(=C/c2cccn2C)C1 (centres undefined),"inconclusive: 31.6 µM [inhibitor, partial curve]",
COc1ccc(/C=C2\SC(=S)N(CC(=O)N3CCN(C)CC3)C2=O)cc1,inactive,
Cc1cc2ccccc2c[n+]1C,inactive,
O=C1C=CC(=O)N1Cc1ccccc1,active: 0.398 µM,
COc1ccc(N2C=C3C(=O)C(C)(OC(=O)CCc4ccccc4)C(=O)C=C3C=C2c2ccc(C#N)cc2)cc1 (centres undefined),"inconclusive: 39.8 µM [inhibitor, partial curve]",
Cc1ccc(-c2nc(CS(=O)CC(=O)N3CCN(c4ncccn4)CC3)c(C)o2)cc1 (centres undefined),active: 10 µM,
CC1CCN(c2nc(-c3ccco3)c3c(c2C#N)CC(C)(C)OC3)CC1,active: 8.91 µM,
COc1ccc(C(=O)Nn2c(SCC(=O)c3ccccc3)nc3ccccc3c2=O)cc1,inactive,
c1ccc(-c2noc(C34CC5CC(CC(C5)C3)C4)n2)cc1,inactive,
CCN(CC)S(=O)(=O)c1cc(C)ccc1NC(=S)Nc1cccnc1,"inconclusive: 79.4 µM [inhibitor, partial curve, poor fit]",
CCC1(c2ccccc2)NC(=O)N(CC(=O)N(CC(=O)Nc2ccccc2C(F)(F)F)Cc2ccco2)C1=O (centres undefined),"inconclusive: 56.2 µM [inhibitor, partial curve]",
CCOC(=O)c1cnc(SC2CC(=O)N(c3ccc(C)cc3)C2=O)nc1N (centres undefined),inactive,
COc1ccc(/C(N)=N/OC(=O)c2cccs2)cc1OC,inactive,
O=C(O)CC1=C(O)C(=O)N(c2ccccc2)C1c1ccccc1 (centres undefined),active: 44.7 µM,
COc1ccc(C(=O)NCCS(=O)(=O)NCc2ccco2)cc1,"inconclusive: 50.1 µM [inhibitor, partial curve]",
O=C(CCN1C(=O)/C(=C\c2ccccc2Cl)SC1=S)Nc1cccnc1,"inconclusive: 89.1 µM [inhibitor, single point]",
CN(C)Cc1cc(C(C)(C)C)c(O)c(C(C)(C)C)c1,active: 8.91 µM,
COc1cc(NS(=O)(=O)c2ccc(OC)c(C)c2C)c(OC)cc1Cl,inactive,
O=C(Nc1ccc(OC(F)(F)F)cc1)C1CCN(S(=O)(=O)c2cccs2)CC1,inactive,

Compound,Potency,"activity change, negative = inhibition"
Cc1cccc(NC(=O)CN2C(=S)NC(C)(C)CC2C)c1C (centres undefined),inactive,
COc1cccc(/C(C)=N/Nc2ncc(Cl)cc2Cl)c1,"inconclusive: 3.98 µM [inhibitor, full curve, poor fit]",
C=C1[C@H]2O[C@H]2[C@@H](OC(C)=O)[C@@]2(C)[C@@H](OC(C)=O)C[C@@H](OC(C)=O)[C@@](C)(O)[C@@H]2[C@@H](OC(C)=O)[C@@]2(O)[C@@H](C)C(=O)O[C@H]2[C@H]1Cl,"inconclusive: 14.1 µM [inhibitor, full curve]",
CCCCCCCCCC[n+]1ccc(/C=C/c2c[nH]c3ccccc23)cc1,"inconclusive: 44.7 µM [inhibitor, partial curve]",
CN(CC1CCOCC1)C(=O)CC1C(=O)NCCN1Cc1ccc(Cl)c(F)c1 (centres undefined),"inconclusive: 56.2 µM [inhibitor, single point]",
CS(=O)(=O)NC1c2cccc3cccc(c23)C1Sc1nncn1/N=C/c1ccco1 (centres undefined),"inconclusive: 63.1 µM [inhibitor, single point]",
Cc1ccc(CN(C)C(=O)CN2C(=O)NC3(CCCC3)C2=O)o1,"inconclusive: 56.2 µM [inhibitor, partial curve, poor fit]",
COCCC(=O)Nc1ccc2c(c1)CN(C(=O)c1ccc(CSC)o1)CC2,"inconclusive: 35.5 µM [inhibitor, partial curve]",
CCC1CCCCN1CCCNC(=O)c1cc2c(=O)oc3ccc(C)cc3c2s1 (centres undefined),"inconclusive: 89.1 µM [inhibitor, single point]",
COC(=O)COc1ccc2c(c1C)O/C(=C\c1ccco1)C2=O,"inconclusive: 56.2 µM [inhibitor, partial curve]",
O=C(C#Cc1ccccc1)c1ccc([N+](=O)[O-])cc1,"inconclusive: 0.282 µM [inhibitor, full curve]",
NC(=O)c1c(NC(NC(=O)c2ccco2)C(=O)c2ccc(Cl)cc2)sc2c1CCCC2 (centres undefined),"inconclusive: 39.8 µM [inhibitor, partial curve]",
CC1CCCN(c2c([N+](=O)[O-])cc(C(=O)O)cc2[N+](=O)[O-])C1 (centres undefined),inactive,
Cc1cccc(C(=O)NC(=S)NNC(=O)c2ccccc2Cl)c1,"inconclusive: 11.2 µM [inhibitor, full curve, poor fit]",
COc1ccc(O)c(C(=O)c2cnc3nc4ccccc4n3c2)c1,"inconclusive: 70.8 µM [inhibitor, partial curve]",
NCCCn1c(C(=O)c2cc(Cl)c(N)c(Cl)c2)c2ccccc2[n+]1[O-],"inconclusive: 56.2 µM [inhibitor, partial curve, poor fit]",
Cc1ccc(Nc2ncnc3ccccc23)cc1,inactive,
CCOC(=O)CSc1nnc(Cc2ccccc2)n1Cc1ccco1,"inconclusive: 12.6 µM [inhibitor, partial curve]",
COc1cc2c(CCNC(C)=O)c[nH]c2cc1O,"inconclusive: 4.23 µM [inhibitor, partial curve, poor fit]",
Oc1ccc(Cl)cc1/C=N/c1nccs1,"inconclusive: 56.2 µM [inhibitor, partial curve, poor fit]",
C#CCOCCOCCOCCNc1nc(N2CCN(C(=O)[C@H](CC(N)=O)n3cc([C@@H](N)CC(N)=O)nn3)CC2)nc(N2CCN(C(=O)[C@H](CC(N)=O)n3cc([C@@H](N)CC(N)=O)nn3)CC2)n1,"inconclusive: 15.8 µM [inhibitor, partial curve]",
CN(C)CCSc1nc(-c2ccccc2)nc2c1COC(C)(C)C2,inactive,
CCCCn1nc(C(=O)N(C)CC(=O)Nc2cccc(F)c2)c2ccccc2c1=O,inactive,

Compound,Potency,"activity change, negative = inhibition"
Cc1cc(N2CCN(C)CC2)nc2ccc(NC(=S)NCCC(C)C)cc12,"inconclusive: 44.7 µM [inhibitor, partial curve]",
COc1ccccc1N(CC1CO1)S(=O)(=O)c1ccc(C)cc1 (centres undefined),"inconclusive: 44.7 µM [inhibitor, partial curve, poor fit]",
CCOc1nc(SC(C(C)=O)C(=O)Nc2ccccc2)nc(N(C)C)n1 (centres undefined),"inconclusive: 17.8 µM [inhibitor, single point]",
O=C1Nc2ccccc2SC1c1ccccc1 (centres undefined),inactive,
O=C1CC(c2ccc(OCCCCCOc3ccc(C4CC(=O)NC4=O)cc3)cc2)C(=O)N1 (centres undefined),"inconclusive: 39.8 µM [inhibitor, single point]",
COc1ccc(/C=N/n2c(-c3n[nH]c4c3CCC4)n[nH]c2=S)cc1OC,"inconclusive: 28.2 µM [inhibitor, partial curve, poor fit]",
COCCN1CCc2nc(SCC(=O)Nc3ccc(C)c(Cl)c3)[nH]c(=O)c2C1,inactive,
CCOC(=O)Cc1csc(NC(=S)NC(=O)c2ccccc2Br)n1,"inconclusive: 20 µM [inhibitor, full curve]",
O=C(/C=C/c1ccc(O)cc1)c1ccc(NC2=C(N3CCCCC3)C(=O)c3ccccc3C2=O)cc1,active: 44.7 µM,
COc1ccccc1-c1cn[nH]c1-c1ccc(OCc2ccc(F)cc2)cc1O,inactive,
COc1cc(/C=C2/C(=O)NN(c3ccccc3)C2=O)cc(Br)c1O,"inconclusive: 22.4 µM [inhibitor, full curve]",
O=C(O)C/C(=C\c1cc2c(cc1Br)OCO2)c1nc2ccccc2s1,"inconclusive: 70.8 µM [inhibitor, partial curve]",
O=C(CCl)Nc1ccc(N2CCCCCC2)cc1,"inconclusive: 56.2 µM [inhibitor, partial curve, poor fit]",
CN(C)C(=S)NC(=S)Nc1ccc2ccccc2c1,,inactive: -0.298% [at 11.4 µM]
O=C(O)c1cc([N+](=O)[O-])c(NCc2cccnc2)c([N+](=O)[O-])c1,"inconclusive: 89.1 µM [inhibitor, partial curve, poor fit]",
O=C(CCNC(=O)C1CCN(S(=O)(=O)c2ccccc2)CC1)NCCc1ccc(Cl)cc1,"inconclusive: 89.1 µM [inhibitor, single point]",
Cc1cc2nc(CO)[nH]c2cc1C,,inactive: 9.82% [at 2.29 µM]
Cn1ncc2c(=S)nc(Cl)[nH]c21,active: 7.08 µM,
Cc1ccc(C)c(OCC(=O)Nc2sc3c(c2C#N)CCCC3)c1C,inactive,
COc1ccc(C(=O)OCC(=O)NC(C)CCc2ccccc2)c(OC)c1 (centres undefined),"inconclusive: 79.4 µM [inhibitor, partial curve, poor fit]",
COc1nccnc1NS(=O)(=O)c1ccc(NC(=S)NC(=O)/C=C/c2ccc(F)cc2)cc1,"inconclusive: 79.4 µM [inhibitor, single point]",
Cc1cc(N2CCCC2)ccc1NC(=O)COc1ccccc1,"inconclusive: 11.2 µM [inhibitor, partial curve, poor fit]",
O=C1Nc2ccccc2/C1=C\C(=O)c1ccccc1,"inconclusive: 79.4 µM [inhibitor, single point]",
